# Assay results taken from the supplement of paper PMC10126150.
# Values marked as one replicate rest on one cluster of the flow cell; about a third of the high ones do not repeat.
# Tested on: ATP
# Assay: switch fluorescence ratio, 500 uM ATP over buffer (Cy3 cluster intensity, sum of 5 cycles each) (fold (ratio)); higher = stronger signal-on switching upon ATP binding; sequences stand for … in TCGTCGGCAGCGTCAGATGTGTATAAGAGACAGTTTTTTTTTTTTTTTTTTTTTTTTT…TC
# Settings: aptamer strand: ATP DNA aptamer (quencher-CACCTGGGGGAGTATTGCGGAGGAAGG + anchor), 100 nM annealed; ATP concentration: 500 uM; one replicate
# In short: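 Between each of five buffer/ATP cycles, the flow-cell was stripped with NaOH and re-annealed. Each cycle imaged Cy3-labelled switching-strand clusters, annealed to 100 nM quencher-labelled ATP aptamer on a modified Illumina MiSeq flow-cell, first in selection buffer and then after 15 min with 500 uM ATP at 22 °C. The fluorescence ratio is summed target-cycle over summed buffer-cycle Cy3 intensity per cluster, averaged per switch-domain sequence, with clusters outside 100-1000 RFU excluded.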
# 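Note: ATP exposure 15 min at 22 °C before imaging.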
row,Sequence,switch fluorescence ratio
1,GGGGATAGTC,1.01
2,GGGGATGCCT,0.995
3,GGGGATTCAG,1.03
4,GGGGCACTAT,1.02
5,GGGGCAGCGA,1.07
6,GGGGCAGCGG,1.01
7,GGGGCAGGCA,0.938
8,GGGGCATATA,0.994
9,GGGGCCACGT,1
10,GGGGCCGGTT,0.99
11,GGGGCCTCAG,1.01
12,GGGGCCTCAT,0.998
13,GGGGCCTGAT,1
14,GGGGCTGGAC,1.02
15,GGGGCTTTGT,1.01
16,GGGGGAACTG,0.961
17,GGGGGACAAT,1.02
18,GGGGGACTCG,0.95
19,GGGGGATGAG,0.98
20,GGGGGCACAC,0.963
21,GGGGGCCAGT,1.03
22,GGGGGCTTGC,0.986
23,GGGGGGGA,1.06
24,GGGGGTAGAT,1.04
25,GGGGGTGTTA,1.01
26,GGGGTAACCA,0.983

row,Sequence,switch fluorescence ratio
1,GGGGTACTGA,1.03
2,GGGGTAGAGC,0.972
3,GGGGTAGCAA,1.02
4,GGGGTCTAG,1.01
5,GGGGTCTGCT,0.99
6,GGGGTGCA,1.04
7,GGGGTGTATG,0.997
8,GGGGTTAGGC,1.08
9,GGGGTTCTAC,1.01
10,GGGGTTTAG,1
11,GGGGTTTCGC,1.09
12,GGGTAATATC,1.08
13,GGGTAATCG,1.02
14,GGGTACATAT,1.07
15,GGGTACGTAG,1.03
16,GGGTACTCAA,1.01
17,GGGTACTGGA,1.02
18,GGGTAGCGTA,0.993
19,GGGTATGCTT,0.958
20,GGGTATGGTC,1.01
21,GGGTCAACCG,0.995
22,GGGTCAGCCC,1.02
23,GGGTCCAATG,1.03
24,GGGTCCCG,0.962
25,GGGTCCGGGT,1
26,GGGTCCTCGT,1.06

row,Sequence,switch fluorescence ratio
1,GGGTCGATGG,0.957
2,GGGTCGGCTC,0.968
3,GGGTCTAATA,1.01
4,GGGTCTGTTC,1.05
5,GGGTGATATG,1
6,GGGTGCAAT,1.29
7,GGGTGCTCCC,0.999
8,GGGTGGAGCG,1.06
9,GGGTGGATAA,1.02
10,GGGTGGGAGC,1.02
11,GGGTGGTTAA,1.02
12,GGGTGTATAG,1.01
13,GGGTGTGTTC,1.05
14,GGGTGTTTAA,1.01
15,GGGTTACTGC,1
16,GGGTTAGCAT,0.96
17,GGGTTCGAGT,1.01
18,GGGTTCGCGC,1.03
19,GGGTTGAGG,1.02
20,GGGTTGCGCA,0.973
21,GGGTTGGCTT,0.94
22,GGGTTGGTAT,0.965
23,GGGTTTCATT,1.16
24,GGGTTTCTA,0.997
25,GGGTTTCTGA,1.02
26,GGGTTTCTTT,1.04

row,Sequence,switch fluorescence ratio
1,GGGTTTTCT,0.996
2,GGTAAAAAGA,1.02
3,GGTAAAAGGG,0.955
4,GGTAAACAGA,1.05
5,GGTAAACTTT,0.928
6,GGTAAATTGG,0.974
7,GGTAACGCGC,1.01
8,GGTAACGCTC,1.04
9,GGTAACGGAA,1
10,GGTAACTACT,0.994
11,GGTAACTTGT,1.05
12,GGTAATGATG,1.02
13,GGTACAGCAT,1.01
14,GGTACATGTC,1.08
15,GGTACCAACC,1
16,GGTACCACGT,0.965
17,GGTACCTTGT,1.05
18,GGTACTGAAG,1.02
19,GGTAGAAACA,0.996
20,GGTAGAGAGT,0.946
21,GGTAGATAGG,0.956
22,GGTAGATGCC,1
23,GGTAGCAATC,5.64
24,GGTAGCATTG,1.01
25,GGTAGCGTAG,1
26,GGTAGGTCGG,0.962

row,Sequence,switch fluorescence ratio
1,GGTAGTGAAG,1.01
2,GGTAGTTAAC,1.04
3,GGTATAATCC,1.01
4,GGTATACAAT,1.01
5,GGTATACGGA,1.01
6,GGTATAGTTT,0.953
7,GGTATATTGC,0.99
8,GGTATCACTG,1.02
9,GGTATCCGCT,0.992
10,GGTATCGTTA,1
11,GGTATCTCG,0.954
12,GGTATCTTAA,0.979
13,GGTATGATTT,0.993
14,GGTATGGACT,1.04
15,GGTATGGTAA,0.993
16,GGTATTTCCG,1.02
17,GGTCAAGAGG,0.962
18,GGTCAATTCC,1.01
19,GGTCACGTTA,1.02
20,GGTCACTGCC,1.07
21,GGTCAGCAGC,1.09
22,GGTCAGGCTT,0.954
23,GGTCATATCA,1.03
24,GGTCATCCG,1.05
25,GGTCATGCAG,0.988
26,GGTCCCACCA,0.974

row,Sequence,switch fluorescence ratio
1,GGTCCCAGTG,1.23
2,GGTCCCTATT,0.972
3,GGTCCGGATA,1.07
4,GGTCCTCCGA,1.34
5,GGTCCTGAGT,0.984
6,GGTCCTTATT,1.02
7,GGTCCTTTTA,0.987
8,GGTCGAACT,1.07
9,GGTCGAATGG,1.02
10,GGTCGATCGT,0.94
11,GGTCGCGGTT,0.987
12,GGTCGCTATA,0.992
13,GGTCGGGCCG,0.998
14,GGTCGTGGGT,0.984
15,GGTCTAATTT,0.955
16,GGTCTAGTTG,1.03
17,GGTCTCTTTT,1.01
18,GGTCTGCCCG,1.01
19,GGTCTGCTGA,0.979
20,GGTCTTACGC,1.05
21,GGTGAATCAA,0.985
22,GGTGAATCTT,1
23,GGTGACAAGA,1.02
24,GGTGACCCGG,0.996
25,GGTGACGGAG,0.907
26,GGTGACGTTT,1.06

row,Sequence,switch fluorescence ratio
1,GGTGAGCATG,0.963
2,GGTGCAAGAA,1.19
3,GGTGCCAAGC,1.11
4,GGTGCCGGTG,0.99
5,GGTGCCTCGG,1.06
6,GGTGCGTACA,0.997
7,GGTGCTAGG,0.984
8,GGTGCTGTGA,1.01
9,GGTGCTTGG,1.04
10,GGTGGAACGA,1.01
11,GGTGGAGACT,0.987
12,GGTGGCCCA,0.965
13,GGTGGCTTGT,0.986
14,GGTGGGCATG,1
15,GGTGGGCCCC,0.957
16,GGTGGGCGAA,0.947
17,GGTGGGCGCA,0.987
18,GGTGGGTACC,0.999
19,GGTGGTACCA,1.04
20,GGTGGTAGCG,1.01
21,GGTGGTCCCC,1.03
22,GGTGGTTG,0.99
23,GGTGTAAACT,0.978
24,GGTGTATCGG,0.985
25,GGTGTCAATG,0.975
26,GGTGTCATAA,0.981

row,Sequence,switch fluorescence ratio
1,GGTGTCGAGA,0.996
2,GGTGTGCAAC,0.987
3,GGTGTGCCA,0.967
4,GGTGTTAACT,1.03
5,GGTGTTAGAA,0.981
6,GGTGTTCTTT,1.03
7,GGTGTTTCTG,0.958
8,GGTGTTTGGC,0.954
9,GGTGTTTTC,0.969
10,GGTTAAAGG,1
11,GGTTAAATA,0.955
12,GGTTACACCG,1.02
13,GGTTACAGCC,1.02
14,GGTTACGGTT,0.938
15,GGTTAGTTCG,0.989
16,GGTTATGATC,0.986
17,GGTTCAACCT,1.13
18,GGTTCAGGCA,0.995
19,GGTTCATCCA,1.02
